# Measurements from the supplement of paper PMC8728848.
# Many of the other results were omitted from the sample, so the strongest signals are more common in it than they were.
# Columns and labels:
# Assay in all cases: glycan array binding signal (z-score within array); higher = stronger binding
# Details in all cases: glycan notation: IUPAC condensed, linker removed
# [1] = system: Fuc(a1-2)Gal(b1-4)GlcNAc(b1-2)[Fuc(a1-2)Gal(b1-4)GlcNAc(b1-4)]Man(a1-3)[Fuc(a1-2)Gal(b1-4)GlcNAc(b1-2)Man(a1-6)]Man(b1-4)GlcNAc(b1-4)GlcNAc
# [2] = system: Fuc(a1-2)Gal(b1-4)GlcNAc6S
# [3] = system: Fuc(a1-2)Gal6S(b1-3)GlcNAc6S
# [4] = system: Fuc(a1-2)[Gal(a1-3)]Gal(b1-3)GlcNAc(b1-2)Man(a1-3)[Fuc(a1-2)[Gal(a1-3)]Gal(b1-3)GlcNAc(b1-2)Man(a1-6)]Man(b1-4)GlcNAc(b1-4)[Fuc(a1-6)]GlcNAc
# [5] = system: Fuc(a1-2)[Gal(a1-3)]Gal(b1-4)GlcNAc(b1-6)GalNAc
# [6] = system: Fuc(a1-2)[Gal(a1-3)]Gal(b1-4)Glc
# Fuc(a1-2)[Gal(a1-3)]Gal = system: Fuc(a1-2)[Gal(a1-3)]Gal
# [7] = system: Fuc(a1-2)[GalNAc(a1-3)]Gal(b1-3)GlcNAc(b1-6)GalNAc
# [8] = system: Fuc(a1-2)[GalNAc(a1-3)]Gal(b1-3)GlcNAc
# [9] = system: Fuc(a1-2)[GalNAc(a1-3)]Gal(b1-4)GlcNAc(b1-2)Man(a1-3)[Fuc(a1-2)[GalNAc(a1-3)]Gal(b1-4)GlcNAc(b1-2)Man(a1-6)]Man(b1-4)GlcNAc(b1-4)GlcNAc
# [10] = system: Fuc(a1-2)[GalNAc(a1-3)]Gal(b1-4)[Fuc(a1-3)]GlcNAc(b1-3)GalNAc
# [11] = system: Fuc(a1-2)[GalNAc(a1-3)]Gal
# Gal(a1-2)Gal = system: Gal(a1-2)Gal
# [12] = system: Gal(a1-3)Gal(b1-4)GlcNAc(b1-2)Man
# Gal(a1-3)Gal = system: Gal(a1-3)Gal
# [13] = system: Gal(b1-3)GlcNAc(b1-3)Gal(b1-4)GlcNAc(b1-3)Gal(b1-4)GlcNAc(b1-2)[Gal(b1-3)GlcNAc(b1-3)Gal(b1-4)GlcNAc(b1-3)Gal(b1-4)GlcNAc(b1-6)]Man(a1-6)[Gal(b1-3)GlcNAc(b1-3)Gal(b1-4)GlcNAc(b1-3)Gal(b1-4)GlcNAc(b1-2)Man(a1-3)]Man(b1-4)GlcNAc(b1-4)[Fuc(a1-6)]GlcNAc
# [14] = system: Gal(b1-3)[Fuc(a1-4)]GlcNAc(b1-6)GalNAc
# [15] = system: Gal(b1-3)[Neu5Ac(a2-6)]GalNAc
# [16] = system: Gal(b1-4)GlcNAc(b1-3)Gal(b1-4)GlcNAc(b1-2)Man(a1-3)[Gal(b1-4)GlcNAc(b1-3)Gal(b1-4)GlcNAc(b1-2)Man(a1-6)]Man(b1-4)GlcNAc(b1-4)GlcNAc
# [17] = system: Gal(b1-4)GlcNAc(b1-3)Gal(b1-4)GlcNAc(b1-3)Gal(b1-4)GlcNAc(b1-2)[Gal(b1-4)GlcNAc(b1-3)Gal(b1-4)GlcNAc(b1-3)Gal(b1-4)GlcNAc(b1-6)]Man(a1-6)[Gal(b1-4)GlcNAc(b1-3)Gal(b1-4)GlcNAc(b1-3)Gal(b1-4)GlcNAc(b1-2)Man(a1-3)]Man(b1-4)GlcNAc(b1-4)[Fuc(a1-6)]GlcNAc
# [18] = system: Gal(b1-4)GlcNAc(b1-3)Gal(b1-4)GlcNAc(b1-3)Gal(b1-4)GlcNAc(b1-3)Gal(b1-4)GlcNAc(b1-2)Man(a1-3)[Gal(b1-4)GlcNAc(b1-3)Gal(b1-4)GlcNAc(b1-3)Gal(b1-4)GlcNAc(b1-3)Gal(b1-4)GlcNAc(b1-2)Man(a1-6)]Man(b1-4)GlcNAc(b1-4)GlcNAc
# [19] = system: Gal(b1-4)GlcNAc(b1-6)Gal(b1-4)GlcNAc(b1-6)GalNAc
# [20] = system: Gal(b1-4)GlcNAc(b1-6)[Gal(b1-4)GlcNAc(b1-3)]GalNAc
# Gal3S(b1-3)GlcNAc = system: Gal3S(b1-3)GlcNAc
# Gal3S(b1-4)Glc6S = system: Gal3S(b1-4)Glc6S
# Gal6S(b1-3)GlcNAc6S = system: Gal6S(b1-3)GlcNAc6S
# Gal6S(b1-4)Glc6S = system: Gal6S(b1-4)Glc6S
# Gal6S(b1-4)GlcNAc6S = system: Gal6S(b1-4)GlcNAc6S
# Gal6S(b1-4)GlcNAc = system: Gal6S(b1-4)GlcNAc
# GalNAc(b1-3)GalNAc = system: GalNAc(b1-3)GalNAc
# Glc(b1-4)Glc = system: Glc(b1-4)Glc
# [21] = system: GlcNAc(a1-4)Gal(b1-4)GlcNAc(b1-3)Gal(b1-4)GlcNAc(b1-3)Gal(b1-4)GlcNAc
# [22] = system: GlcNAc(b1-2)[GlcNAc(b1-4)]Man(a1-3)[GlcNAc(b1-4)][GlcNAc(b1-2)[GlcNAc(b1-6)]Man(a1-6)]Man(b1-4)GlcNAc(b1-4)GlcNAc
# [23] = system: GlcNAc(b1-3)Gal(b1-4)GlcNAc(b1-6)[GlcNAc(b1-3)]Gal(b1-4)GlcNAc
# GlcNAc(b1-3)Gal(b1-4)Glc = system: GlcNAc(b1-3)Gal(b1-4)Glc
# [24] = system: Man(a1-2)Man(a1-2)Man(a1-6)[Man(a1-3)]Man
# [25] = system: Man(a1-2)Man(a1-3)[Man(a1-2)Man(a1-6)]Man(a1-6)[Man(a1-2)Man(a1-2)Man(a1-3)]Man(b1-4)GlcNAc(b1-4)GlcNAc
# [26] = system: Man(a1-2)Man(a1-3)[Man(a1-2)Man(a1-6)]Man(a1-6)[Man(a1-2)Man(a1-2)Man(a1-3)]Man
# [27] = system: Man(a1-2)Man(a1-6)[Man(a1-3)]Man(a1-6)[Man(a1-2)Man(a1-2)Man(a1-3)]Man
# [28] = system: Neu5Ac(a2-3)Gal(b1-3)GlcNAc(b1-2)Man(a1-3)[Neu5Ac(a2-3)Gal(b1-3)GlcNAc(b1-2)Man(a1-6)]Man(b1-4)GlcNAc(b1-4)GlcNAc
# [29] = system: Neu5Ac(a2-3)Gal(b1-4)GlcNAc(b1-2)Man(a1-3)[Neu5Ac(a2-3)Gal(b1-4)GlcNAc(b1-2)Man(a1-6)]Man(b1-4)GlcNAc(b1-4)[Fuc(a1-6)]GlcNAc
# [30] = system: Neu5Ac(a2-3)Gal(b1-4)GlcNAc(b1-2)Man(a1-3)[Neu5Ac(a2-6)Gal(b1-4)GlcNAc(b1-2)Man(a1-6)]Man(b1-4)GlcNAc(b1-4)GlcNAc
# [31] = system: Neu5Ac(a2-3)Gal(b1-4)GlcNAc(b1-3)Gal(b1-4)GlcNAc(b1-3)Gal(b1-4)GlcNAc
# [32] = system: Neu5Ac(a2-6)Gal(b1-4)GlcNAc(b1-2)Man(a1-3)[Neu5Ac(a2-6)Gal(b1-4)GlcNAc(b1-2)Man(a1-6)]Man(b1-4)GlcNAc(b1-4)[Fuc(a1-6)]GlcNAc
# [33] = system: Neu5Ac(a2-6)Gal(b1-4)GlcNAc(b1-2)Man(a1-6)[Man(a1-3)]Man(b1-4)GlcNAc(b1-4)GlcNAc
# [34] = system: Neu5Ac(a2-6)GalNAc(b1-4)GlcNAc
# [35] = system: Neu5Ac(a2-6)GlcNAc(b1-4)GlcNAc
# [36] = system: Neu5Gc(a2-8)Neu5Gc(a2-3)Gal(b1-4)GlcNAc(b1-3)Gal(b1-4)GlcNAc
# [37] = system: Fuc(a1-2)Gal(b1-3)GalNAc(b1-4)[Neu5Ac(a2-3)]Gal(b1-4)Glc
# [38] = system: Fuc(a1-2)Gal(b1-4)[Fuc(a1-3)]GlcNAc
# Gal(a1-3)GlcNAc = system: Gal(a1-3)GlcNAc
# Gal(b1-3)Gal = system: Gal(b1-3)Gal
# [39] = system: Gal(b1-4)GlcNAc(b1-6)[Gal(b1-3)]GalNAc
# Gal3S(b1-4)GlcNAc6S = system: Gal3S(b1-4)GlcNAc6S
# Gal3S6S(b1-4)GlcNAc6S = system: Gal3S6S(b1-4)GlcNAc6S
# GalNAc(a1-3)Gal = system: GalNAc(a1-3)Gal
# [40] = system: GlcNAc(b1-3)Gal(b1-4)GlcNAc(b1-3)Gal(b1-4)GlcNAc
# [41] = system: GlcNAc(b1-3)[GlcNAc(b1-6)]GlcNAc
# [42] = system: GlcNAc(b1-4)GlcNAc(b1-4)GlcNAc(b1-4)GlcNAc(b1-4)GlcNAc(b1-4)GlcNAc
# [43] = system: GlcNAc(b1-4)GlcNAc(b1-4)GlcNAc(b1-4)GlcNAc(b1-4)GlcNAc
# [44] = system: Man(a1-2)Man(a1-3)[Man(a1-2)Man(a1-6)]Man
# [45] = system: Man(a1-2)Man(a1-3)[Man(a1-3)[Man(a1-6)]Man(a1-6)]Man(b1-4)GlcNAc(b1-4)GlcNAc
# [46] = system: Neu5Ac(a2-3)Gal(b1-3)GalNAc(b1-3)Gal(a1-4)Gal(b1-4)Glc
# [47] = system: Neu5Ac(a2-3)Gal(b1-3)GlcNAc
# [48] = system: Neu5Ac(a2-3)Gal(b1-3)[Fuc(a1-4)]GlcNAc
# [49] = system: Neu5Ac(a2-3)Gal(b1-4)GlcNAc6S
# [50] = system: Neu5Ac(a2-3)GalNAc(b1-4)GlcNAc
# Neu5Ac(a2-6)GalNAc = system: Neu5Ac(a2-6)GalNAc
substance,measurement,setting,value
Langerin (Homo sapiens) (chain not printed),glycan array binding signal (z-score),[1],0.725
same,glycan array binding signal (z-score),[2],-0.294
same,glycan array binding signal (z-score),[3],-0.235
same,glycan array binding signal (z-score),[4],0.867
same,glycan array binding signal (z-score),[5],0.136
same,glycan array binding signal (z-score),[6],-0.39
same,glycan array binding signal (z-score),Fuc(a1-2)[Gal(a1-3)]Gal,7.09
same,glycan array binding signal (z-score),[7],-0.175
same,glycan array binding signal (z-score),[8],-0.378
same,glycan array binding signal (z-score),[9],-0.007
same,glycan array binding signal (z-score),[10],0.531
same,glycan array binding signal (z-score),[11],3.25
same,glycan array binding signal (z-score),Gal(a1-2)Gal,-0.385
same,glycan array binding signal (z-score),[12],-0.344
same,glycan array binding signal (z-score),Gal(a1-3)Gal,-0.382
same,glycan array binding signal (z-score),[13],3.04
same,glycan array binding signal (z-score),[14],0.416
same,glycan array binding signal (z-score),[15],-0.262
same,glycan array binding signal (z-score),[16],0.311
same,glycan array binding signal (z-score),[17],0.308
same,glycan array binding signal (z-score),[18],-0.082
same,glycan array binding signal (z-score),[19],-0.492
same,glycan array binding signal (z-score),[20],-0.143
same,glycan array binding signal (z-score),Gal3S(b1-3)GlcNAc,-0.42
same,glycan array binding signal (z-score),Gal3S(b1-4)Glc6S,-0.354
same,glycan array binding signal (z-score),Gal6S(b1-3)GlcNAc6S,6.33
same,glycan array binding signal (z-score),Gal6S(b1-4)Glc6S,3.27
same,glycan array binding signal (z-score),Gal6S(b1-4)GlcNAc6S,11.9
same,glycan array binding signal (z-score),Gal6S(b1-4)GlcNAc,3.5
same,glycan array binding signal (z-score),GalNAc(b1-3)GalNAc,1.18
same,glycan array binding signal (z-score),Glc(b1-4)Glc,-0.356
same,glycan array binding signal (z-score),[21],-0.293
same,glycan array binding signal (z-score),[22],-0.347
same,glycan array binding signal (z-score),[23],2.59
same,glycan array binding signal (z-score),GlcNAc(b1-3)Gal(b1-4)Glc,1.15
same,glycan array binding signal (z-score),[24],5.76
same,glycan array binding signal (z-score),[25],1.19
same,glycan array binding signal (z-score),[26],3.22
same,glycan array binding signal (z-score),[27],4.6
same,glycan array binding signal (z-score),[28],0.143
same,glycan array binding signal (z-score),[29],0.011
same,glycan array binding signal (z-score),[30],-0.428
same,glycan array binding signal (z-score),[31],-0.353
same,glycan array binding signal (z-score),[32],-0.103
same,glycan array binding signal (z-score),[33],-0.23
same,glycan array binding signal (z-score),[34],-0.368
same,glycan array binding signal (z-score),[35],-0.38
same,glycan array binding signal (z-score),[36],-0.29
PTX3 (chain not printed),glycan array binding signal (z-score),[37],0.025
same,glycan array binding signal (z-score),[2],-0.045
same,glycan array binding signal (z-score),[38],-0.268
same,glycan array binding signal (z-score),Gal(a1-2)Gal,0.028
same,glycan array binding signal (z-score),Gal(a1-3)GlcNAc,-0.324
same,glycan array binding signal (z-score),Gal(b1-3)Gal,0.109
same,glycan array binding signal (z-score),[39],-0.372
same,glycan array binding signal (z-score),Gal3S(b1-4)Glc6S,1.97
same,glycan array binding signal (z-score),Gal3S(b1-4)GlcNAc6S,1.98
same,glycan array binding signal (z-score),Gal3S6S(b1-4)GlcNAc6S,5.66
same,glycan array binding signal (z-score),Gal6S(b1-4)Glc6S,2.46
same,glycan array binding signal (z-score),GalNAc(a1-3)Gal,-0.44
same,glycan array binding signal (z-score),[40],-0.2
same,glycan array binding signal (z-score),[41],-0.352
same,glycan array binding signal (z-score),[42],-0.372
same,glycan array binding signal (z-score),[43],0.149
same,glycan array binding signal (z-score),[44],-0.5
same,glycan array binding signal (z-score),[45],-0.402
same,glycan array binding signal (z-score),[46],-0.343
same,glycan array binding signal (z-score),[47],-0.301
same,glycan array binding signal (z-score),[48],-0.51
same,glycan array binding signal (z-score),[31],0.058
same,glycan array binding signal (z-score),[49],3.79
same,glycan array binding signal (z-score),[50],-0.208
same,glycan array binding signal (z-score),Neu5Ac(a2-6)GalNAc,-0.544
